{"source": "the supplement of paper PMC3334620", "note": "Over roughly 33,000 sequences, “E-score (-0.5 to 0.5)” has its median near -0.035; the highest 2% begin near 0.35. Some of the results follow.", "data": [{"target": "T1, Pdr3 (UniProt P33200)", "T1 sequence": "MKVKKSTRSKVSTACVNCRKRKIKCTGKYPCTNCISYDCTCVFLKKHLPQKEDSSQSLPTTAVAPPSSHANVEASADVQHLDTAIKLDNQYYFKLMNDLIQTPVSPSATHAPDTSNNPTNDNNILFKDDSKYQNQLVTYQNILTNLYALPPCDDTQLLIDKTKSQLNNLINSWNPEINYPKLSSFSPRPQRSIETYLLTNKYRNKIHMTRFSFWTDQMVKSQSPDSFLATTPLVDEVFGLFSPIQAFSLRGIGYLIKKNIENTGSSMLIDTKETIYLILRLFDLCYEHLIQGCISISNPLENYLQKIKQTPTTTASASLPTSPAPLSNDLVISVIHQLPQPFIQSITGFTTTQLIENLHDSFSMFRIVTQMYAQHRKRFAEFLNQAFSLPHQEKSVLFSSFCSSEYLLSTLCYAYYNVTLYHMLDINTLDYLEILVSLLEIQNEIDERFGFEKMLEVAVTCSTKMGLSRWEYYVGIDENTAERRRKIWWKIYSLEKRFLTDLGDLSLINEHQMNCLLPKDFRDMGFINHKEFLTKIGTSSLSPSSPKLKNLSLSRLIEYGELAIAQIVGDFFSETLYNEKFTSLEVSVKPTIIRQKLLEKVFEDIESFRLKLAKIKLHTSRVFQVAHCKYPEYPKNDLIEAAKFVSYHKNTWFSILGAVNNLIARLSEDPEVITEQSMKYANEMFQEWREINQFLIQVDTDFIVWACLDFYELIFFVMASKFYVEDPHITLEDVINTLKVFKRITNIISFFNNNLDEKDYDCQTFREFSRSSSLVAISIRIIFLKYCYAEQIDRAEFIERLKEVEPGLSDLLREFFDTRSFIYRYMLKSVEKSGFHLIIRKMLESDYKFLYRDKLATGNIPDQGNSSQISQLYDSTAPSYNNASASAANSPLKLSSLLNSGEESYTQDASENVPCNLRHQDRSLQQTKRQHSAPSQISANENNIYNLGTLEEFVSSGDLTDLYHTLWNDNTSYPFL", "assay": "PBM E-score (8-mer binding enrichment) (E-score (-0.5 to 0.5)); higher = stronger / more preferred TF binding; most listed sequences are background and not binding sites", "conditions": "protein concentration: 200 nM; construct: GST-full length", "how_it_was_run": "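PURExpress in vitro transcription/translation supplied GST-tagged yeast transcription factors, either full-length or DNA-binding domain. Applied at about 100-200 nM to universal all-10-mer Agilent arrays double-stranded by primer extension, the bound protein was detected with fluorescent anti-GST. E-scores, modified Wilcoxon-Mann-Whitney statistics, were given by the Universal PBM Analysis Suite to ungapped eight-base words pooled with their reverse complements after masliner normalisation.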", "values": [{"sequence": "AATACATA", "PBM E-score": -0.0287}, {"sequence": "AACGGGCG", "PBM E-score": 0.0106}, {"sequence": "AACCTGCA", "PBM E-score": -0.0269}, {"sequence": "AAACTAGC", "PBM E-score": -0.159}, {"sequence": "GGATAAAC", "PBM E-score": 0.195}, {"sequence": "ACAACACA", "PBM E-score": -0.129}, {"sequence": "CAACCGAA", "PBM E-score": 0.167}, {"sequence": "GCGGGTAC", "PBM E-score": 0.239}, {"sequence": "ACGGTAAG", "PBM E-score": 0.0665}, {"sequence": "AGAATGGC", "PBM E-score": 0.0693}, {"sequence": "AGGCAACT", "PBM E-score": 0.0755}, {"sequence": "TATCCTCA", "PBM E-score": -0.11}, {"sequence": "AAGGGACC", "PBM E-score": -0.0339}, {"sequence": "AACGAAAT", "PBM E-score": 0.0569}, {"sequence": "AGTTCGAT", "PBM E-score": -0.0424}, {"sequence": "AATGGGGG", "PBM E-score": -0.134}, {"sequence": "AAGAAAGC", "PBM E-score": -0.0817}, {"sequence": "AACTCCGT", "PBM E-score": 0.271}, {"sequence": "ACAGCCAT", "PBM E-score": -0.0801}, {"sequence": "AATGCGTC", "PBM E-score": -0.0804}, {"sequence": "CGGCTACC", "PBM E-score": 0.242}, {"sequence": "CTGGCTCC", "PBM E-score": -0.046}, {"sequence": "AGAGCCTC", "PBM E-score": -0.16}, {"sequence": "GTTCCTTA", "PBM E-score": -0.111}, {"sequence": "ACGGGAAG", "PBM E-score": 0.133}, {"sequence": "CAGAGTAA", "PBM E-score": -0.181}, {"sequence": "CAGAGATA", "PBM E-score": -0.0613}, {"sequence": "AACTGTAT", "PBM E-score": 0.0308}, {"sequence": "CCTCATAG", "PBM E-score": -0.0951}, {"sequence": "CCAGGAAG", "PBM E-score": -0.235}, {"sequence": "GCTAGTAC", "PBM E-score": -0.145}, {"sequence": "TCATCGCA", "PBM E-score": -0.145}, {"sequence": "AGAGGCAG", "PBM E-score": -0.162}, {"sequence": "AATAGTGA", "PBM E-score": -0.137}, {"sequence": "AGGGAGTG", "PBM E-score": -0.181}, {"sequence": "AGCACGTG", "PBM E-score": -0.113}, {"sequence": "ACTAGCCC", "PBM E-score": -0.0838}, {"sequence": "ACTGCGTG", "PBM E-score": -0.323}, {"sequence": "GCAATCTA", "PBM E-score": -0.0331}, {"sequence": "GCAGCTCA", "PBM E-score": -0.123}, {"sequence": "CAGCGATC", "PBM E-score": 0.139}, {"sequence": "TGATAACA", "PBM E-score": -0.0461}, {"sequence": "GTCACTCA", "PBM E-score": 0.0354}, {"sequence": "CAGGCGGA", "PBM E-score": 0.344}, {"sequence": "TAAAGAGA", "PBM E-score": -0.149}, {"sequence": "ATCACTAC", "PBM E-score": -0.118}, {"sequence": "TGTCTTAA", "PBM E-score": -0.0565}, {"sequence": "AGTTCGGA", "PBM E-score": 0.313}, {"sequence": "ATTTGCAA", "PBM E-score": 0.0204}, {"sequence": "GGAACGCC", "PBM E-score": 0.278}, {"sequence": "ACGGCCTG", "PBM E-score": 0.0213}, {"sequence": "CCACCTGA", "PBM E-score": 0.0202}, {"sequence": "AACACCGC", "PBM E-score": 0.0385}, {"sequence": "AAAATCAA", "PBM E-score": 0.0367}, {"sequence": "CATCGTGG", "PBM E-score": -0.036}, {"sequence": "ACCGTGGG", "PBM E-score": -0.0668}, {"sequence": "TGCAGTAA", "PBM E-score": -0.191}, {"sequence": "GTCCGGAA", "PBM E-score": 0.457}, {"sequence": "ACTAGGCA", "PBM E-score": -0.293}, {"sequence": "ACAGAGAT", "PBM E-score": -0.0971}, {"sequence": "CACGCACG", "PBM E-score": 0.0761}, {"sequence": "ATTGGGTG", "PBM E-score": 0.18}, {"sequence": "ATTTTGCC", "PBM E-score": -0.0613}, {"sequence": "GACACCAC", "PBM E-score": -0.0851}, {"sequence": "AGATAAAT", "PBM E-score": 0.14}, {"sequence": "ACGGCAGC", "PBM E-score": 0.102}, {"sequence": "CGTAGTGA", "PBM E-score": -0.0441}, {"sequence": "ACATACTC", "PBM E-score": -0.0334}, {"sequence": "AATGTAGC", "PBM E-score": -0.115}, {"sequence": "AGGTCGCA", "PBM E-score": 0.0949}, {"sequence": "AGGAGGGA", "PBM E-score": -0.202}, {"sequence": "GTTTCAAA", "PBM E-score": -0.138}, {"sequence": "CAACGCGC", "PBM E-score": 0.159}, {"sequence": "AGCAACAA", "PBM E-score": -0.0779}, {"sequence": "ACGGTGAT", "PBM E-score": -0.0595}, {"sequence": "ATATTGCG", "PBM E-score": 0.143}, {"sequence": "ACTCATTA", "PBM E-score": -0.0261}, {"sequence": "ACAGAGCA", "PBM E-score": -0.00989}, {"sequence": "GTCCTCGA", "PBM E-score": -0.0431}, {"sequence": "AATATCTC", "PBM E-score": 0.0689}, {"sequence": "CCACTAAA", "PBM E-score": -0.056}, {"sequence": "ACAACGCA", "PBM E-score": -0.0503}, {"sequence": "AGTTGGAG", "PBM E-score": 0.00815}, {"sequence": "CTGGTCTC", "PBM E-score": -0.267}, {"sequence": "GAACTGAC", "PBM E-score": 0.117}, {"sequence": "GCAACCAC", "PBM E-score": 0.145}]}]}
